Measured values as given in PMC4336329 (PLoS ONE, 2015).
The whole screen tested about 310,000 compounds, of which about 14,000 (4.5%) showed an effect of 50% or more. The effect is printed as a negative number. The list shows a part of the results.

target: human ether-à-go-go-related gene (hERG) potassium channel (human, UniProt Q12809); assay: primary screen, population patch clamp on CHO cells stably expressing hERG
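Also: peak tail current of the secondary pulse compared with the same well before compound.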

human ether-à-go-go-related gene (hERG) potassium channel, sequence (Q12809 whole entry, looked up): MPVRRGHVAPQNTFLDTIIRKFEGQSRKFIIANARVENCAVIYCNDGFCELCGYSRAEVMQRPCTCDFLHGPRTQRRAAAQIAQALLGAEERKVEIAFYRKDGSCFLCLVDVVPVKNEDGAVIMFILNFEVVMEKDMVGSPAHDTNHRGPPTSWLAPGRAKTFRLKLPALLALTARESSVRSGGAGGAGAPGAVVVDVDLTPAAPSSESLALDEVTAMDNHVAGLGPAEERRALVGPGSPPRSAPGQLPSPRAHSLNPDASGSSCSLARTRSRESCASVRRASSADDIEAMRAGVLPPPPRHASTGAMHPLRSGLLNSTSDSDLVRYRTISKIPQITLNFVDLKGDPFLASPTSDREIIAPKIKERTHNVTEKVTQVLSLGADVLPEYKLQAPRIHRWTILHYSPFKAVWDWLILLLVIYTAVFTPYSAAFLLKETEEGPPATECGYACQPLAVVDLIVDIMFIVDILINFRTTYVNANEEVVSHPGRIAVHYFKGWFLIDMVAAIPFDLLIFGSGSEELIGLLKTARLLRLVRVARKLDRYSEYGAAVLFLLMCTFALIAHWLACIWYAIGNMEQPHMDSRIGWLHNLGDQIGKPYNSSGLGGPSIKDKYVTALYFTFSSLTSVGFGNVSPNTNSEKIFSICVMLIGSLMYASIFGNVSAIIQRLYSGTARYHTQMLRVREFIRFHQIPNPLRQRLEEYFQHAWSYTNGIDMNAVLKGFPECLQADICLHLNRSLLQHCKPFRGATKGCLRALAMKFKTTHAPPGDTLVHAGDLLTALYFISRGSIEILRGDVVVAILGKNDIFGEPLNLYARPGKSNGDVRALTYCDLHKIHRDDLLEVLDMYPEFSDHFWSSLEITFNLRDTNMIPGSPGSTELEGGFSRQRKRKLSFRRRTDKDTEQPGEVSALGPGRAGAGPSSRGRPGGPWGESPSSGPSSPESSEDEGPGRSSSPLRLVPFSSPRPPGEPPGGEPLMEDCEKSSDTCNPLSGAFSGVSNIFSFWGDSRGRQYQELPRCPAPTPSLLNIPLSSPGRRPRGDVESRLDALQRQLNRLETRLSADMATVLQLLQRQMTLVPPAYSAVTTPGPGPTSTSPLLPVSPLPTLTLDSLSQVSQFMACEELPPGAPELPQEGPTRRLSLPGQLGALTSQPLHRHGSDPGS

| Compound | hERG current change (%, negative = inhibition) at 10uM |
| --- | --- |
| CS/C(=C\[N+](=O)[O-])Nc1ccc(C)cc1 | 2.14% |
| O=C(CN(CCc1ccccc1)C(=O)CN1C(=O)COc2ccccc21)NCc1ccco1 | -17.8% |
| O=C(Oc1ccc(O)cc1)C12CC3CC(CC(C3)C1)C2 | 8.92% |
| CC(=O)Oc1ccc(C2OC(=O)c3ccccc3N2C(C)=O)cc1 (centres unmarked) | 1.12% |
| Cc1cc(C(=O)NC2CCCCC2)c(C)o1 | 0.345% |
| CC(C)(C)NC(=O)CN(C(=O)CCC(=O)Nc1nccs1)c1ccc(F)c(Cl)c1 | -11.8% |
| O=C(CCN1C(=O)C2CCCCC2C1=O)Nc1ccc(Br)cc1F (centres unmarked) | -4.16% |
| Cc1c(S(=O)(=O)N2CCN(c3ccc(F)cc3)CC2)c(=O)n(C)c(=O)n1C | -24.7% |
| COc1ccc(-c2cc(C(=O)Nc3cccc(Cl)c3)no2)cc1 | 19.9% |
| CCOc1cc(/C=N/NC(N)=O)ccc1OC(=O)c1ccc(C)cc1 | 7.74% |
| Cc1cccc(C)c1Nc1ncnc2ccccc12.Cl | 16.8% |
| Brc1cc2c(cc1C1Nc3ccccc3C3C=CCC31)OCO2 (centres unmarked) | -6.37% |
| Cc1nc(SCC(=O)c2cccs2)c2oc3ccccc3c2n1 | 13.4% |
| COc1cc(Cl)c(C)cc1NC(=O)CSc1nnc(CCC(=O)O)c(=O)[nH]1 | 17.9% |
| CN=C1CC(SC)=C1c1ccc(C)cc1 | -7.16% |
| O=C(c1ccccc1)[C@H]1[C@H](c2ccccc2)[C@@]2(N=C(c3ccccc3)OC2=O)C2c3ccccc3C=NN21 (some centres unmarked) | 2.86% |
| Cc1nn(CC(=O)NC(C)CCc2ccccc2)c(=O)c2nn(-c3ccccc3)c(C)c12 (centres unmarked) | 23% |
| CCC(C)NC(=O)CSc1ccc(Cl)cc1 (centres unmarked) | 4.32% |
| COc1cc(SSc2cc(OC)cc([N+](=O)[O-])c2N)c(N)c([N+](=O)[O-])c1 | 7.62% |
| COc1ccc(CC(NC(C)=O)C(=O)NC2CCN(c3nnnn3-c3ccccc3)CC2)cc1OC (centres unmarked) | 14.2% |
| CC(OC(=O)Cc1c[nH]c2ccccc12)C(=O)Nc1ccc(S(N)(=O)=O)cc1 (centres unmarked) | 0.959% |
| Cc1ccc(S(=O)(=O)Cn2nnnc2CN2CCN(Cc3ccc4c(c3)OCO4)CC2)cc1 | -28.7% |

| Compound | hERG current change (%, negative = inhibition) at 10uM |
| --- | --- |
| Cn1c(CC(=O)Nc2ccccc2F)nnc1SCC(=O)NC1=NCCS1 | 20.6% |
| O=C(Cn1nc(-c2cccc(Cl)c2)ccc1=O)NCC1COCCO1 (centres unmarked) | -4.1% |
| CCc1cccc(NS(=O)(=O)c2c(C)nc3scc(C)n3c2=O)c1 | 9.84% |
| Cc1cc(NC(=O)Cn2c(=O)n(Cc3ccccc3)c(=O)c3ccccc32)no1 | 8.1% |
| CC(C(=O)Nc1ccc(C(=O)O)c(O)c1)N1C(=O)/C(=C\c2ccco2)SC1=S (centres unmarked) | 28.8% |
| Cc1ccc(Nc2nc(Cl)c(C=O)s2)cc1Cl | 8.41% |
| CC(C)N(C(=O)c1ccccc1-c1ccccc1)C(C)C | -18.9% |
| CCc1cc(CNC(=O)c2ccc3nc(Cc4ccc(OC)c(OC)c4)oc3c2)on1 | 5.04% |
| CCCc1cc(C(=O)O)c2ccccc2n1 | 2.31% |
| Cc1ccc(S(=O)(=O)N(C)c2ccccc2C(=O)N2CCOCC2)cc1 | 4.91% |
| C=CCn1c(=S)[nH]c2sc3c(c2c1=O)CCCC3 | 18.9% |
| Cc1ccc(C(CCN(Cc2ccccc2)C(=O)c2ccco2)c2ccco2)cc1 (centres unmarked) | -5.13% |
| CC(C)Sc1ccc([N+](=O)[O-])cc1C(=O)Nc1ccncc1 | -11.7% |
| CCN(CC)c1ccc(/C=C2/C(=O)ON=C2C)cc1 | -20.9% |
| COc1ccc(-c2ccc(SCC(=O)c3cccs3)nn2)cc1OC | -1.36% |
| CSc1ccc(CN2CCC(CO)(Cc3ccc(Cl)cc3)CC2)cc1 | -81.3% |
| CCOc1ccc(C2c3c(oc4ccccc4c3=O)C(=O)N2CCCN2CCOCC2)cc1 (centres unmarked) | 7.34% |
| Cc1ccc(C(=O)NCc2ccc(Cl)c(Cl)c2)o1 | -10.8% |
| Cn1c(=O)[nH]c(=O)c2c1nc(SCCN1CCCCC1)n2CCCc1ccccc1 | -69% |
| O=C(NCc1ccc(F)cc1)c1cc(S(=O)(=O)N2CCCCC2)ccc1Cl | 7.59% |
| C[C@H](NC(=O)c1ccco1)C(=O)NCCc1ccc(S(N)(=O)=O)cc1 | 15.8% |
| Cc1cc(=O)n2nc(N3CCC(C(=O)NC4CCCc5ccccc54)CC3)sc2n1 (centres unmarked) | -19.3% |

| Compound | hERG current change (%, negative = inhibition) at 10uM |
| --- | --- |
| CCN(CC)CCn1c2c(c(SCC(=O)Nc3nccs3)nc1=O)CCCC2 | -59.5% |
| Cl.OCCNCc1cccc2ccccc12 | 20.9% |
| CC1CN(C(=O)CCc2ccccc2)C(C)CN1C(=O)CCc1ccccc1 (centres unmarked) | -60.4% |
| CC12CC3(C)CC(C)(C1)CC(C(=O)NCCc1ccc(S(N)(=O)=O)cc1)(C2)C3 | -14.9% |
| Cc1ccc(N2CC(C(=O)NCCS(=O)(=O)N3CCN(c4ccccc4F)CC3)CC2=O)cc1 (centres unmarked) | 13.2% |
| CN(C)S(=O)(=O)c1cccc(NC(=O)CNCc2ccccn2)c1.O=C(O)C(=O)O | 12.2% |
| Cn1c(=O)c2c(nc(N3CCCCC3)n2C)n(C)c1=O | -21.5% |
| Cc1ccc(NC(=O)Nc2ccc3c(c2)OCO3)cc1F | -15.8% |
| CN1C(=O)c2oc3ccccc3c(=O)c2C1c1ccccn1 (centres unmarked) | 0.972% |
| Cn1nc(C(=O)Nc2ccc3c(c2)OCCO3)cc1C(=O)O | 33.3% |
| CC(=O)c1ccc(NS(=O)(=O)c2c(C)cc(C)cc2C)cc1 | 17.9% |
| CC(NC(=O)C(=O)NCc1cccs1)c1ccccc1 (centres unmarked) | 16.9% |
| Cc1ccccc1N(C)C(=O)c1coc(=O)c2ccccc12 | 10.3% |
| Cc1ccccc1N(CC(=O)NCC1CCCO1)C(=O)CNS(=O)(=O)c1ccc(F)cc1 (centres unmarked) | 1.78% |
| Cc1cccnc1NC(=O)CCC(=O)c1cccs1 | 2.93% |
| COc1cc(C2C3=C(CCCC3=O)Nc3[nH]n(-c4ccccc4)c(=O)c32)ccc1O (centres unmarked) | -14.2% |
| CC1=C(C(=O)OC(C)(C)C)C(c2cccc3ccccc23)NC(=O)N1 (centres unmarked) | 8.44% |
| COc1ccc(CN2C(=O)c3ccccc3C2OC)cc1 (centres unmarked) | 6.22% |
| COc1ccccc1CN1C[C@@H]2C[C@@H](c3[nH]c4ccc(C)cc4c3C)N3CCC[C@@]23C1=O | -30.7% |
| CCCCN(C(=O)C1CCCO1)c1c(N)n(CC(C)C)c(=O)[nH]c1=O (centres unmarked) | -4.18% |
| COc1ccc(C(=O)Nc2nnc(SCC(=O)NCc3ccco3)s2)c(OC)c1 | 5.5% |
| O=C(CNC(=O)c1ccccc1Br)N/N=C/c1cc(Br)ccc1O | 17.5% |

| Compound | hERG current change (%, negative = inhibition) at 10uM |
| --- | --- |
| COc1ccc(CCC(=O)N2CCCC(Nc3ccc(C)c(C)c3)C2)cc1OC (centres unmarked) | -5.96% |
| COc1ccc(CNC(=O)CN2C(=O)NC(Cc3ccccc3)(c3ccccc3)C2=O)cc1OC (centres unmarked) | -12.2% |
| CNc1ccc(S(=O)(=O)NCC(=O)OCC(=O)Nc2cccc(Cl)c2Cl)cc1[N+](=O)[O-] | -12.7% |
| COc1ccc(Cl)cc1C(=O)Nc1ccc(N(C)C(C)=O)cc1 | 10.2% |
| Cc1nn(CCCC(=O)Nc2ccccn2)c(C)c1[N+](=O)[O-] | 18.3% |
| CCOCCCNC(=O)C(c1ccc(OC)cc1)N(Cc1ccc2c(c1)OCO2)C(=O)c1ccccn1 (centres unmarked) | 2.61% |
| Cc1cccn2c(CN3CCCN(C=O)CC3)c(C(=O)N(C)CCc3ccccc3)nc12 | 26.6% |
| COc1ccc(N(CC(=O)Nc2ccccc2C(=O)N2CCOCC2)S(=O)(=O)c2ccc(F)cc2)cc1 | -44.6% |
| COc1ccc(C(=O)NCc2nnc(SCC(=O)N3CCc4ccccc43)n2CCc2ccccc2)cc1 | -19.1% |
| CN1CCN(CCOc2cccc(Cl)c2)CC1.Cl | 1.19% |
| O=C(N/N=C/c1ccc(Br)s1)c1cccs1 | 0.404% |
| Cc1nc2c(sc3nc(N4CCOCC4)c4c(c32)CC(C)(C)OC4)c(-c2ccc(Cl)cc2)c1C(=O)O | -5.71% |
| CC(C)c1ccccc1NC(=O)c1ccc2ncsc2c1 | -1.98% |
| Cc1ccccc1C([O-])=Nc1ccc[n+](-c2nc3ccccc3nc2NS(=O)(=O)c2ccccc2)c1 | -3.51% |
| COc1ccc(Cl)c(Cn2c(NCCCO)nc3c2c(=O)n(C)c(=O)n3C)c1 | -3.49% |
| Cc1cc2nc(-c3cccnc3SCC(=O)NC3CC3)[nH]c2cc1C | 7.59% |
| O=C(CC1Sc2ccccc2NC1=O)OCc1cc(=O)oc2cc(O)ccc12 (centres unmarked) | -51.7% |
| Cc1c(NC(=O)CN2CCC(C(N)=O)CC2)cccc1[N+](=O)[O-] | 26.4% |
| COc1ccc(CCNC(=O)c2cccn2C)cc1 | 20.4% |
| Cc1ccc2c(CN3CCCCC3)cc(=O)oc2c1 | -16.1% |
